The list shows a part of the results.

The assay has as its target T1, MBP-FoxP1dN (Mus musculus, UniProt P58462 326-579).
T1 sequence: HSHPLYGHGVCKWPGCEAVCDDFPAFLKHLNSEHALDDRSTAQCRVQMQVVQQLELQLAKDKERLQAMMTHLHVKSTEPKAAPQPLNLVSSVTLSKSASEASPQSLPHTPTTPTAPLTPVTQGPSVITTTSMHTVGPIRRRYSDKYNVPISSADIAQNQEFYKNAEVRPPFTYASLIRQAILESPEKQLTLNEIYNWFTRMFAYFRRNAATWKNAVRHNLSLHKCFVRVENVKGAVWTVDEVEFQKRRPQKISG
As to the kind of experiment: PD-seq (MBP pull-down with sequencing); 20 mM Tris-HCl pH 7.5, 100 mM NaCl, 1.5 mM MgCl2, 0.4 uM protein, 0.1 uM dsDNA library, 30 min, room temperature, amylose pull-down; high values mean tight binding. Conditions: protein: recombinant; tags: His6-MBP; chain copies: 2; dsDNA, one strand shown. A digest of the protocol:
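His6-MBP-tagged mouse FoxP3 or FoxP1 fragment lacking the N-terminus, expressed in E. coli, was mixed at 0.4 µM with 0.1 µM Klenow-filled double-stranded degenerate DNA library. Incubation was 30 min at room temperature in Tris pH 7.5 buffer with NaCl and MgCl2. Complexes were caught on amylose resin and washed three times; DNA was released with proteinase K, PCR-barcoded and Illumina-sequenced. Binding is reads-per-million enrichment, pull-down over input, with replicates pooled.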
For the sequence “GATGATTGTTCTCCCAGCTGATGAATTACCCGTGTCGAGTAAACAAATTTTCCTAATCTTTCTGTTCAAGCGCCATCTAC”, the binding signal was 0.918 RPM ratio (pull-down/input).
The same measure for “GATGATTGTTCTCCCAGCTGATGAATTCGACATGTCGAGTAAACAAATTTTCCTAATCTTTCTGTTCAAGCGCCATCTAC”: 0.897 RPM ratio (pull-down/input).
The same measure for “GATGATTGTTCTCCCAGCTGATGAATTACCCATATCGAGTAAACAAATTTTCCTAATCTTTCTGTTCAAGCGCCATCTAC”: 1.07 RPM ratio (pull-down/input); for “GATGATTGTTCTCCCAGCTGATGAATTAGCGCCATCGAGTAAACAAATTTTCCTAATCTTTCTGTTCAAGCGCCATCTAC”: 0.972 RPM ratio (pull-down/input); for “GATGATTGTTCTCCCAGCTGATGAATTAAAACGTTCGAGTAAACAAATTTTCCTAATCTTTCTGTTCAAGCGCCATCTAC”: 1.01 RPM ratio (pull-down/input).
The result for “GATGATTGTTCTCCCAGCTGATGAATTGTACCAGTCGAGTAAACAAATTTTCCTAATCTTTCTGTTCAAGCGCCATCTAC” reads 0.896 RPM ratio (pull-down/input).
On to “GATGATTGTTCTCCCAGCTGATGAATTTTCTTATTCGAGTAAACAAATTTTCCTAATCTTTCTGTTCAAGCGCCATCTAC”, for which the binding signal is 0.953 RPM ratio (pull-down/input).
The result for “GATGATTGTTCTCCCAGCTGATGAATTAGCCGAGTCGAGTAAACAAATTTTCCTAATCTTTCTGTTCAAGCGCCATCTAC” reads 0.838 RPM ratio (pull-down/input).
With “GATGATTGTTCTCCCAGCTGATGAATTCCGACCCTCGAGTAAACAAATTTTCCTAATCTTTCTGTTCAAGCGCCATCTAC”, the binding signal is 0.728 RPM ratio (pull-down/input).
Regarding “GATGATTGTTCTCCCAGCTGATGAATTGCGCGTATCGAGTAAACAAATTTTCCTAATCTTTCTGTTCAAGCGCCATCTAC”, the binding signal was 1.14 RPM ratio (pull-down/input).
Take “GATGATTGTTCTCCCAGCTGATGAATTCACCTGCTCGAGTAAACAAATTTTCCTAATCTTTCTGTTCAAGCGCCATCTAC”: the binding signal was 0.83 RPM ratio (pull-down/input).
The same measure for “GATGATTGTTCTCCCAGCTGATGAATTGTGCTGCTCGAGTAAACAAATTTTCCTAATCTTTCTGTTCAAGCGCCATCTAC”: 0.988 RPM ratio (pull-down/input); for “GATGATTGTTCTCCCAGCTGATGAATTGATTCGATCGAGTAAACAAATTTTCCTAATCTTTCTGTTCAAGCGCCATCTAC”: 0.994 RPM ratio (pull-down/input).
On to “GATGATTGTTCTCCCAGCTGATGAATTATCCCAATCGAGTAAACAAATTTTCCTAATCTTTCTGTTCAAGCGCCATCTAC”, for which the binding signal is 1.02 RPM ratio (pull-down/input).
With “GATGATTGTTCTCCCAGCTGATGAATTGCTTCTGTCGAGTAAACAAATTTTCCTAATCTTTCTGTTCAAGCGCCATCTAC”, the binding signal is 0.961 RPM ratio (pull-down/input).
The result for “GATGATTGTTCTCCCAGCTGATGAATTATGCCTCTCGAGTAAACAAATTTTCCTAATCTTTCTGTTCAAGCGCCATCTAC” reads 0.997 RPM ratio (pull-down/input); that for “GATGATTGTTCTCCCAGCTGATGAATTCGGGGAATCGAGTAAACAAATTTTCCTAATCTTTCTGTTCAAGCGCCATCTAC”, 0.94 RPM ratio (pull-down/input); that for “GATGATTGTTCTCCCAGCTGATGAATTAAGTTGCTCGAGTAAACAAATTTTCCTAATCTTTCTGTTCAAGCGCCATCTAC”, 1.09 RPM ratio (pull-down/input).
The same measure for “GATGATTGTTCTCCCAGCTGATGAATTGTTACGGTCGAGTAAACAAATTTTCCTAATCTTTCTGTTCAAGCGCCATCTAC”: 1.15 RPM ratio (pull-down/input); for “GATGATTGTTCTCCCAGCTGATGAATTTCCTAAATCGAGTAAACAAATTTTCCTAATCTTTCTGTTCAAGCGCCATCTAC”: 1.05 RPM ratio (pull-down/input).
The result for “GATGATTGTTCTCCCAGCTGATGAATTTCTTGGATCGAGTAAACAAATTTTCCTAATCTTTCTGTTCAAGCGCCATCTAC” reads 0.875 RPM ratio (pull-down/input).
Consider “GATGATTGTTCTCCCAGCTGATGAATTAAGTACGTCGAGTAAACAAATTTTCCTAATCTTTCTGTTCAAGCGCCATCTAC”, for which the binding signal was 0.976 RPM ratio (pull-down/input).
For “GATGATTGTTCTCCCAGCTGATGAATTTTGATGCTCGAGTAAACAAATTTTCCTAATCTTTCTGTTCAAGCGCCATCTAC”, the binding signal was 1.28 RPM ratio (pull-down/input).
The result for “GATGATTGTTCTCCCAGCTGATGAATTGAGGCAATCGAGTAAACAAATTTTCCTAATCTTTCTGTTCAAGCGCCATCTAC” reads 1.08 RPM ratio (pull-down/input); that for “GATGATTGTTCTCCCAGCTGATGAATTTATTAATTCGAGTAAACAAATTTTCCTAATCTTTCTGTTCAAGCGCCATCTAC”, 1.32 RPM ratio (pull-down/input); that for “GATGATTGTTCTCCCAGCTGATGAATTCCGAACTTCGAGTAAACAAATTTTCCTAATCTTTCTGTTCAAGCGCCATCTAC”, 0.811 RPM ratio (pull-down/input).
For “GATGATTGTTCTCCCAGCTGATGAATTTCAGTGATCGAGTAAACAAATTTTCCTAATCTTTCTGTTCAAGCGCCATCTAC”, the binding signal is 0.914 RPM ratio (pull-down/input).
The same measure for “GATGATTGTTCTCCCAGCTGATGAATTTGCTGCATCGAGTAAACAAATTTTCCTAATCTTTCTGTTCAAGCGCCATCTAC”: 1.2 RPM ratio (pull-down/input); for “GATGATTGTTCTCCCAGCTGATGAATTTCAAAGTTCGAGTAAACAAATTTTCCTAATCTTTCTGTTCAAGCGCCATCTAC”: 0.792 RPM ratio (pull-down/input).
As to “GATGATTGTTCTCCCAGCTGATGAATTATGTCTCTCGAGTAAACAAATTTTCCTAATCTTTCTGTTCAAGCGCCATCTAC”, the binding signal was 1 RPM ratio (pull-down/input).
The result for “GATGATTGTTCTCCCAGCTGATGAATTGGGGCACTCGAGTAAACAAATTTTCCTAATCTTTCTGTTCAAGCGCCATCTAC” reads 0.856 RPM ratio (pull-down/input).

The values above are taken from article PMC12820563, “FoxP3 forms a head-to-head dimer in vivo and stabilizes its multimerization on adjacent microsatellites”.
